{
  "source": "PubChem BioAssay AID686979",
  "about": "(National Center for Advancing Translational Sciences (NCATS), 2013)",
  "note": "Values joined by “and” are separate entries in the source; they are usually repeats but may differ in a detail not shown here. Equal values may be shown once. Hit rate of the full screen: of about 420,000 compounds, about 50,000 (12%) were called active. This list was built around the results that the source calls inconclusive (neither active nor inactive); the mix of calls is not that of the screen. The call rests on the fitted dose curve; in most records, active means well fitted inhibition curve with a large enough effect; inconclusive means small, poorly fitted or top-dose-only effect; inactive means flat fitted curve, though single readings scatter. Potencies beside an inconclusive call are fits to weak or partial responses and may not hold up. Potency means the concentration at half of the fitted maximal effect; tags describe the fitted curve by direction and shape.",
  "data": [
    {"assay": "qHTS for Inhibitors of human tyrosyl-DNA phosphodiesterase 1 (TDP1): qHTS in cells in presence of CPT; further: nearly all actives have a fitted effect of over 55% in size", "conditions": "chicken DT40 Tdp1-/-;hTDP1 cells + 20 nM CPT, ATP luminescence, 48 h; series mostly up to 46.2 µM", "procedure,_shortened": "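Chicken DT40 Tdp1-/- cells stably complemented with human TDP1 were seeded at 400 cells/well in medium containing 20 nM camptothecin, exposed to pin-transferred compounds, and grown at 37 °C for at least 48 hr. Viability was read as ATP luminescence.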", "values": [
      {"smiles": "COc1cccc(NC(=O)c2cc3ccccc3o/c2=N\\O)c1", "Potency": "active: 14.6 µM"},
      {"smiles": "CCCCc1nc2cc(C(=O)NCCc3c(C)n[nH]c3C)ccc2o1", "Potency": "inactive"},
      {"smiles": "COC(=O)[C@]1(C)N[C@H](c2ccc(-c3ccc(Cl)c(Cl)c3)cc2)[C@@H]2C(=O)N(C)C(=O)[C@@H]21", "Potency": "inconclusive: 29.1 µM [inhibitor, single point]"},
      {"smiles": "CC(C)[C@H](NC(=O)c1ccc(Br)cc1)C(=O)NC1CCCCC1", "Potency": "inactive"},
      {"smiles": "OCCNCCOc1ccccc1-c1ccccc1", "Potency": "inactive"},
      {"smiles": "Cc1cccnc1N(C(=O)Nc1ccccc1)C1=NCC(C)(C)S1", "Potency": "inconclusive: 29.1 µM [inhibitor, single point]"},
      {"smiles": "CC(=O)Nc1ccc(OCC(=O)NCc2ccc3c(c2)OCO3)cc1", "Potency": "inactive"},
      {"smiles": "CCN(C(=O)CSc1ncnc2c1cnn2-c1ccccc1)C1CCS(=O)(=O)C1", "note": "(centres undefined)", "Potency": "inactive"},
      {"smiles": "CC(C)C[C@@H](CN=[N+]=[N-])N1CCN(CCc2ccccc2)CCC1=O", "Potency": "inconclusive: 25.1 µM [inhibitor, single point]"},
      {"smiles": "COc1ccc(N(C)C(=O)c2cc3c(s2)-c2ccccc2S(=O)(=O)C3)cc1", "Potency": "inconclusive: 23.1 µM [inhibitor, single point]"},
      {"smiles": "Cc1cc(C)cc(NC(=O)CN2C(=O)c3ccccc3Sc3ccc(C(=O)N4CCCC4)cc32)c1", "Potency": "inconclusive: 20.6 µM [inhibitor, single point]"},
      {"smiles": "COc1cc2c(C#CCCCO)c(-c3ccsc3)oc(=O)c2cc1OC", "Potency": "active: 23.1 µM"},
      {"smiles": "COc1ccc(-c2cn(Cc3ccc4c(c3)C(=O)c3ccccc3C4=O)nn2)cc1", "Potency": "inconclusive: 15.8 µM [inhibitor, single point] and inconclusive: 29.1 µM [inhibitor, single point]"},
      {"smiles": "COc1ccc(-n2c(=O)c3c4c(sc3n(CC(=O)NCc3ccco3)c2=O)CCC4)c(OC)c1", "Potency": "inconclusive: 23.1 µM [inhibitor, single point]"},
      {"smiles": "COCCn1c(=O)cnc2cnc(N3CCN(C)CC3)nc21", "Potency": "active: 23.1 µM"},
      {"smiles": "NC(=O)c1c(/N=C/c2cccnc2)sc2c1CCCC2", "Potency": "inconclusive: 25.9 µM [inhibitor, single point]"},
      {"smiles": "O=C(NCCc1nnc2ccc(N3CCCC3)nn12)c1ccccc1", "Potency": "inactive"},
      {"smiles": "CS(=O)(=O)N1CCN(c2ccccc2NC(=S)NC(=O)c2ccco2)CC1", "Potency": "inconclusive: 23.1 µM [inhibitor, single point]"},
      {"smiles": "CC1(C)CC(=O)c2cn3nc(C(F)(F)F)nc3nc2C1", "Potency": "inactive"},
      {"smiles": "Cc1ccc(S(=O)(=O)N2CC3(O)CN(C(=O)OC(C)C)N(C(=O)OC(C)C)CC3(OC(=O)Nc3c(C)noc3C)C2)cc1", "note": "(centres undefined)", "Potency": "inconclusive: 29.1 µM [inhibitor, single point]"},
      {"smiles": "Cc1ccc(C)c(CN2CCCN(Cc3ccccc3C)S2(=O)=O)c1", "Potency": "inconclusive: 23.1 µM [inhibitor, single point]"},
      {"smiles": "Cc1cc(N2CCN(S(=O)(=O)c3ccccc3)CC2)nc2c(C)cccc12", "Potency": "inconclusive: 29.1 µM [inhibitor, single point]"},
      {"smiles": "COc1cc(OC)c(OC)cc1CNC(=O)c1cccc(S(=O)(=O)N2CCc3ccccc3C2)c1", "Potency": "active: 13 µM"},
      {"smiles": "CCCOc1ccc(F)cc1-c1cc(C(=O)Nc2ccc(OC)cc2OC)[nH]n1", "Potency": "inconclusive: 18.4 µM [inhibitor, single point]"},
      {"smiles": "Cc1cccn2c(=O)c3cc(C(=O)NCc4ccco4)c(=N)n(C4CCCCC4)c3nc12", "Potency": "inconclusive: 20.6 µM [inhibitor, single point]"},
      {"smiles": "COc1ccccc1NC(=O)CSc1nnc2c(n1)[nH]c1ccccc12", "Potency": "inconclusive: 23.1 µM [inhibitor, single point]"},
      {"smiles": "COc1ccc(CCn2c(-c3ccco3)nc3ccccc3c2=O)cc1OC", "Potency": "active: 2.59 µM"},
      {"smiles": "CCOC(=O)c1c(NC(=O)COC(=O)C2CC2C)sc(C)c1C", "note": "(centres undefined)", "Potency": "inconclusive: 14.6 µM [inhibitor, single point]"},
      {"smiles": "Clc1ccc(-c2c[n+](Cc3ccc(Cl)cc3Cl)c3n2CCCCC3)cc1", "Potency": "active: 1.16 µM"},
      {"smiles": "O=C(CN1C(=O)CCc2cc(Br)ccc21)Nc1ccc(OC(F)(F)F)cc1", "Potency": "inconclusive: 16.4 µM [inhibitor, partial curve, poor fit]"},
      {"smiles": "OCCCNc1nccc(-c2cc(Nc3cccc(Cl)c3)ncn2)n1", "Potency": "active: 1.16 µM"},
      {"smiles": "O=C1CNc2ccc(C(=O)N3CCN(c4ccccn4)CC3)cc2N1", "Potency": "inconclusive: 29.1 µM [inhibitor, single point]"},
      {"smiles": "O=C(CN(Cc1ccc(F)cc1)C(=O)CNS(=O)(=O)c1ccc(Cl)cc1)NCC1CCCO1", "note": "(centres undefined)", "Potency": "inactive"},
      {"smiles": "OC(Cc1ccc2ccccc2n1)c1ccc(Cl)c(Cl)c1", "note": "(centres undefined)", "Potency": "inconclusive: 0.316 µM [inhibitor, full curve, poor fit]"},
      {"smiles": "COc1cccc(CNC(=O)c2nn(C)c3c2CSc2ccccc2-3)c1", "Potency": "inactive"},
      {"smiles": "CSc1ncccc1C(=O)NCC1Cc2cc(F)cc(-c3cncnc3)c2O1", "note": "(centres undefined)", "Potency": "inactive"},
      {"smiles": "COc1ccccc1NC(=O)CCc1nc2ccccc2s1", "Potency": "inconclusive: 29.1 µM [inhibitor, single point]"},
      {"smiles": "O=C(NC(=S)N1CCN(c2ccc(Cl)cc2[N+](=O)[O-])CC1)c1ccco1", "Potency": "inconclusive: 25.9 µM [inhibitor, single point]"},
      {"smiles": "COc1ccc(OC)c(/C=C/c2c3ccccc3cc[n+]2C)c1", "Potency": "active: 2.24 µM"},
      {"smiles": "Cc1cccc(NC(=O)C2CC(=O)OC23CCCCC3)c1", "note": "(centres undefined)", "Potency": "inconclusive: 4.61 µM [inhibitor, partial curve, poor fit]"},
      {"smiles": "COc1ccc(CSc2nc3ccccc3c(=O)[nH]2)cc1F", "Potency": "inconclusive: 29.1 µM [inhibitor, single point]"},
      {"smiles": "CNc1ccc(Br)cc(C(=O)/C=C/c2cccc(Cl)c2Cl)c1=O", "Potency": "active: 18.4 µM"},
      {"smiles": "O=C(Nc1cccc(C(F)(F)F)c1)c1csc([C@H]2C[C@H](O)[C@@H](CO)O2)n1", "Potency": "inconclusive: 29.1 µM [inhibitor, single point]"},
      {"smiles": "COc1ccc(-n2nc(C(=O)NCc3ccco3)c3c4ccccc4n(C)c3c2=O)cc1Cl", "Potency": "inconclusive: 16.4 µM [inhibitor, partial curve]"}
    ]}
  ]
}
